# Reference: the supplement of paper PMC10441789
# This is one part of the list. Antibody binding of pooled human sera (four to six donors per pool; dilution not stated) to peptides of the Trypanosoma cruzi antigen TSSA on microarrays. Quantile-normalised fluorescence in arbitrary units, mean of duplicate arrays; higher = more binding. No active / inactive call. The uninfected pools are read here as the healthy donors of the same country. The strongest signals lie near the top of the scale (about 60,000).
# Test system: pooled sera of chronic Chagas disease patients, Argentina
# Experiment: antibody binding signal (normalised fluorescence) (arbitrary fluorescence units); higher = stronger serum antibody binding to peptide
# Method: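 Microarray of 15-residue peptides over residues 30-55 of Trypanosoma cruzi TSSAII, each with 1 to 10 substitutions at naturally variable positions, probed with one serum pool per country.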
row,Sequence,antibody binding signal
1,SSTPPSGTENKTAAG,57200
2,TENKPAAGGTPSQSG,50600
3,GKDKKAAAGGAPSPP,178
4,TDNKPAAGEAPSQPG,9560
5,PPSGTENKAAAGETP,42400
6,GTDKKTAAGEAPSPP,210
7,GTDNKPATGGTPSPS,2360
8,TPPSGKENKAAAGGA,10100
9,TDNKTATGGTPSPPG,294
10,KAAAGGTPSPSGASS,229
11,GKEKKTATGEAPSQP,13400
12,TEKKPAAGGTPSPSG,1720
13,GTDKKAATGGTPSPS,387
14,PPSGKDKKTATGETP,782
15,SGTENKAATGEAPSP,33500
16,PSGKDKKAAAGETPS,2400
17,ENKPATGEAPSPSGA,45700
18,KDKKPATGGAPSQSG,416
19,PSGKEKKAATGEAPS,18900
20,KDNKPAAGGTPSPPG,183

row,Sequence,antibody binding signal
1,ENKAAAGGAPSPPGA,268
2,KDNKPATGEAPSPPG,45000
3,TISTPPSGTENKTAT,48500
4,KENKTATGGAPSPSG,373
5,GKDKKAAAGGTPSQS,211
6,PSGKDKKTATGEAPS,11100
7,SGKEKKTAAGGAPSP,2430
8,SGTDKKPAAGETPSQ,395
9,PPSGKEKKAAAGEAP,1520
10,PSGTDKKTATGGAPS,4160
11,TPPSGTEKKTAAGGA,28100
12,ENKPAAGGTPSPSGA,462
13,GKENKTATGGTPSQS,2120
14,PPSGKEKKTATGEAP,11300
15,TISTPPSGKENKPAT,19600
16,TENKAATGEAPSPSG,33300
17,TSSTPPSGTDNKAAT,33100
18,TDNKTAAGGTPSQPG,1160
19,KDNKTAAGGTPSPPG,960
20,PPSGTDNKTATGGTP,24000
